# According to the supplement of paper PMC11417369:
# Some of the results follow.
# Test system: PfHDP1 homeodomain (GST-tagged)
# Assay: gcPBM binding intensity (ln(normalized median fluorescence intensity)); higher = stronger DNA binding
# Summary of the method: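 Alexa488 anti-GST antibody, scanned at 488 nm, detected GST-tagged P. falciparum DNA-binding domains that had been expressed in E. coli and incubated for 1 h on an Agilent 4 × 180k array. The array carried primer-extended double-stranded 36-bp intergenic genomic probes and negative controls. Binding intensity is the highest Masliner-normalised natural-log median intensity across replicate spots of either orientation of each probe.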
row,Sequence,gcPBM binding intensity (ln)
1,ATACAATTCTTACATTGTACTTTTTTTTTTTATCAC [XGTACX_site6327],6.07
2,TACATAAATTAAAACACACACACACCCAAAAAAAAA [CACACA_site2261],6.86
3,GTGTATATTATTTTATCACACATGTACATATGTTAA [CACACA_site5473],6.47
4,AAAAAATAAAAAGATACACACATATGTATAATATAC [CACACA_site1496],6.83
5,AATAAAAAAATATGAAATTATGACATATAGCATTTG [TGCATGCA_negctrl_site160],6.09
6,AATTTGATAATATCATGTACATGAAAGAATTCATGA [XGTACX_site8463],6.27
7,GTTAAAAGAAAAATATGTACATAAAAAAATTAGAAA [XGTACX_site578],6.79
8,TTTTCAATTAAAAAAAAATTATATTTTATTATTACA [CACACA_negctrl_site142],5.65
9,AAGATGGTAAAGAATTGTACGCGCATATATATATTT [XGTACX_site3904],7.61
10,TATATATATATATGATGTACACATTTTATTATTTGT [XGTACX_site1147],9.27
11,CTCTTGTTTCCATATAGTACGTAATAATATATACAA [XGTACX_site2428],6.64
12,AAAAATATAAACAAACGTACGAAGTGATGATATATT [XGTACX_site2242],6.6
13,TATTATATTTTTATTTGTACGTAAAATTAAGTTATG [XGTACX_site2405],6.54
14,TTTTTTGTTAAGTTGGTGCAAACAATAGTTATTGAC,10.7
15,GGAGCACCCAGACACACACACACATATATATATATA [CACACA_site336],9.25
16,TATATCTACTACACACGTACACAAAATAAGATACCT [XGTACX_site7886],6.85
17,AAAAAAAAAAAACACACACACACACCCATATATAAA [CACACA_site1170],6.79
18,ACATAAAATTATTATACATGCATATTTAATTTTTTC [TGCATGCA_site353],6.44
19,TGTAGTCTGGAGAAGAGTACATAGTATCTGGTAGCT [XGTACX_site2029],6.4

row,Sequence,gcPBM binding intensity (ln)
1,GAATTGTATTGGTACTGTACAATTAAATTAAAAAAA [XGTACX_site1891],6.36
2,TTTTTTTTTTTTACATGTACTTATTTTAAATATAAA [XGTACX_site805],6.84
3,TATATTTATTTAAAAACATGCATTTTTTTTTTCCGT [TGCATGCA_site44],6.5
4,ATTTTTTTGGTAATTTGTACATAATATATACATAAT [XGTACX_site3742],6.79
5,AAAATTAAAACCTACACACACATTTAAAAAAAAAAA [CACACA_site3068],6.61
6,TATATTATAGGTTGTGTACACATATTATATAGTACT [CACACA_site4583],6.9
7,ATATATTTATAGACTTGTACATATATATACGATATA [XGTACX_site8890],6.2
8,AAGGCATGACTATCTGCACACATAAAAATAAGAAAT [CACACA_site8180],7.7
9,AATTTTTTTTTTTTGTGTCCTCATAATTCTTCATTC [XGTACX_site5042],6.14
10,TAAAAAAAAATATAATGTACGTATAAATATATATTA [XGTACX_site5085],6.49
11,TAAACATAATAATATACACACATATATTGATATATA [CACACA_site2144],6.37
12,TTCCTGTTAATTACAACACACAATTTTTATTTTATG [CACACA_site779],6.91
13,TAATTAAATACATTAACACACACACTAATATATACA [CACACA_site8938],7.02
14,TAACTATTATAAAAATGTACAAATGAAAATATTTTT [XGTACX_site1438],6.88
15,AAAATAAAAATAAAAGCACACATAAATATATATATA [CACACA_site8409],8.55
16,TACCAAAAAAAAAAAAATAAAAATAAAAAAAAAAAT [CACACA_negctrl_site1714],6.27
17,TAAAAGTTTTTATACATACACACCTATAAATTAAGT [CACACA_site2446],6.69
18,CTTTATTATAAGATTACACACATGTCTTATAATTTA [CACACA_site5715],6.58
19,TTTAAAAAATTATATTCACACACATACACATATATA [CACACA_site8076],6.95

row,Sequence,gcPBM binding intensity (ln)
1,ATAAATCGATAAAATATATGCTACATGAATAAATAA [XGTACX_negctrl_site604],6.45
2,ATATTTTTATATAATGAACACACATATTATATCATT [CACACA_site8446],6.22
3,TAAAAGGATACATATACACACATATATATATATATA [CACACA_site2791],9.36
4,TTCTTCAACAAAAAAATAAAAATAAAATAATAAAAA [GTGCAC_negctrl_site619],6.66
5,ATACACATAACATATATATATATATATATATATATC [CACACA_negctrl_site278],7.51
6,ATCTTTCCTTTTGCATGTACATATGGAAATACTTTT [XGTACX_site6995],6.78
7,ATAATTAAGTTATGTGTGCACTGTTAAAAATAAATG,9.94
8,TATATATATATAAACGCATGTAATTTATACACACAT [TGCATGCA_site946],8.95
9,TTTTTTATTTTTTACATATTTAGCTCATATTTATAT [GTGCAC_negctrl_site491],6.84
10,AATATAATATCTATAATATAAAAAAAACAAAAAAAA [CACACA_negctrl_site875],6.28
11,TTTTATGATATTTACACACAAACGTGAGATAGCTCA [CACACA_site2311],6.57
12,AAAATATGTTAATATTGTACTTAAATAAAAAAAATA [XGTACX_site7152],6.32
13,ATTCTTAAAATAAAATGTACGAAAAAAAAAAAAAAA [XGTACX_site1657],6.45
14,AGAATTATATACACAAGTACATAATGACATATATAT [XGTACX_site5617],6.69
15,TAGATGTATTTTTAAAGTACTTTTTAATATATAATC [XGTACX_site1431],5.85
16,TAAAAAATTATATTCACACACATACACATATATATA [CACACA_site545],6.82
17,TTACAATATAATAAATGTACATATAACAAATATATA [XGTACX_site2199],6.71
18,CGACTTTTAAAATATACACACATATAAATAAATATA [CACACA_site6523],6.55
19,TTTTTTTTTTTTTGTAGTACATACTATTTTATTAAT [XGTACX_site950],6.36
